# Results as given in the supplement of paper PMC11417369.
# ± gives the standard deviation of the averaged measurements. The list shows a part of the results.
# System: PfAP2-G AP2 domain (GST-tagged)
# Assay: gcPBM binding intensity (ln(normalized median fluorescence intensity)); higher = stronger DNA binding
# Procedure, shortened: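 Alexa488 anti-GST antibody, scanned at 488 nm, detected GST-tagged P. falciparum DNA-binding domains that had been expressed in E. coli and incubated for 1 h on an Agilent 4 × 180k array. The array carried primer-extended double-stranded 36-bp intergenic genomic probes and negative controls. Binding intensity is the highest Masliner-normalised natural-log median intensity across replicate spots of either orientation of each probe.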
row,Sequence,gcPBM binding intensity (ln)
1,ATAAAAGAATAAATAAAACACATATATATATATATA [XGTACX_negctrl_site31],10.1 ± 0.61
2,AAAAGATGCGCATACACACAGATGAATAACAAAAAA [CACACA_site6865],10.1
3,TACGTATGCCTGTGATGTACATATATATATACATAC [XGTACX_site4728],11.3 ± 0.61
4,TTTCGGTTTTTTTTTATTTTTTTTTTTTTATTATTT [CACACA_negctrl_site335],9.75 ± 0.042
5,GCACATTTTTTTATCACACATATAATTACAATATAA [CACACA_site5585],10.2 ± 0.23
6,ATATAGGTAAAAAGTATACACACGTTGACACATTCT [CACACA_site1199],10.19 ± 0.021
7,AATATGATATATATATGTACATATATATAATATAAT [XGTACX_site3072],11.1 ± 0.64
8,AAAGTATAATAATACACACACTTTAAAAGTTAAATG [CACACA_site7550],10.08 ± 0.071
9,ATAATATAATTTTGCAGTACCCAAAAAACAAAATAA [XGTACX_site4827],11.2 ± 0.76
10,TTATTGAAAAAAGAACAAAAAAAAAAAGAAAAATTA [XGTACX_negctrl_site438],9.72 ± 0.057
11,TATAAACATTATAAATGTACAAATATATATATATAT [XGTACX_site3218],10.5 ± 0.3
12,GAAAGAATAAAATTTACACACATATATATATACATA [CACACA_site2250],9.745 ± 0.035
13,ATATATATATATATATGTACTTATTTGAATACTAAA [XGTACX_site2330],11.2 ± 0.79
14,AAAATAAGAAATAGATGTACTTATAAATAAATACAA [XGTACX_site4441],11.4 ± 0.65
15,GGCATAAATATATGCACACACAAAAAAAAAAAAAAA [CACACA_site59],10 ± 0.65
16,TTTTTTTTTTTAAAAAGTACACAATTAATTAATATA [XGTACX_site8494],11.5 ± 1.1
17,ATATTGTTTTATATAGAACACACATAAAAATATATA [CACACA_site8314],10.1 ± 0.25
18,GTTAATAAAAATATATGTACATAATTATTATGAAAA [XGTACX_site3030],11.4 ± 0.78
19,TATATATTTTTTAAACCACACACAATATAGAGTATA [CACACA_site8106],10.3 ± 0.17
20,AATATTATTTAGGAGCGTACGTTTTATTTACATATT [XGTACX_site5188],11.2 ± 0.62
21,TCATTATATCATGGTAGTACTCATTAATAATACGTA [XGTACX_site8701],11.5 ± 0.86
22,AACCACATACATATAACACACATATACAATATATAT [CACACA_site8607],10.1 ± 0.19
23,GGACATTTTTATAAGGTGCACGGTTTTGATATTACT [GTGCAC_site9892],10.6 ± 0.28

row,Sequence,gcPBM binding intensity (ln)
1,ATAATGATATATAGTACACACAAAAATGGAAGTAAA [CACACA_site7541],11.2 ± 0.78
2,TCATTCATAAAAATAACACACAAAAAAAAAAAAAAA [CACACA_site1800],9.7 ± 0.47
3,AAATTATATTATTGAACACACGTTTGGTAATGTTTT [CACACA_site5469],10.04 ± 0.085
4,AAATATAAGAAAAAGGTGCTTTTTTTTTTTTTTTTT [GTGCAC_site9700],10.5 ± 0.19
5,AGGGAAAAAAAAAAAGTGCATTTGTATTAAATGAAT,9.985 ± 0.021
6,GTAAACAAAATATTTTGTACATATTTTATATTATTT [XGTACX_site7837],10.9 ± 0.54
7,TGACTATGTATATTTAGTACATAAAATCAATAATAT [XGTACX_site4082],10.9 ± 0.71
8,AAGGGTTGCCTGTGTAGTACATATATATATATATAT [XGTACX_site8555],11.5 ± 0.91
9,CTCTTGTTTCCATATAGTACGTAATAATATATACAA [XGTACX_site2428],11.4 ± 0.75
10,TTTTCAATTAAAAAAAAATTATATTTTATTATTACA [CACACA_negctrl_site142],9.41 ± 0.33
11,AAGATGGTAAAGAATTGTACGCGCATATATATATTT [XGTACX_site3904],11.6 ± 0.83
12,TATATATATATATGATGTACACATTTTATTATTTGT [XGTACX_site1147],11.5 ± 0.95
13,GTTAAAAGAAAAATATGTACATAAAAAAATTAGAAA [XGTACX_site578],11.5 ± 0.81
14,AATTTGATAATATCATGTACATGAAAGAATTCATGA [XGTACX_site8463],10.8 ± 0.4
15,AATAAAAAAATATGAAATTATGACATATAGCATTTG [TGCATGCA_negctrl_site160],9.58 ± 0.11
16,AAAAAATAAAAAGATACACACATATGTATAATATAC [CACACA_site1496],10.125 ± 0.007
17,GTGTATATTATTTTATCACACATGTACATATGTTAA [CACACA_site5473],11.2 ± 0.83
18,TACATAAATTAAAACACACACACACCCAAAAAAAAA [CACACA_site2261],10.5 ± 0.42
19,TGTAGTCTGGAGAAGAGTACATAGTATCTGGTAGCT [XGTACX_site2029],11.2 ± 0.68
20,GAATTGTATTGGTACTGTACAATTAAATTAAAAAAA [XGTACX_site1891],11.2 ± 0.93
21,AAAAAAAAAAAACACACACACACACCCATATATAAA [CACACA_site1170],10 ± 0.11
22,ACATAAAATTATTATACATGCATATTTAATTTTTTC [TGCATGCA_site353],9.785 ± 0.049
23,GGAGCACCCAGACACACACACACATATATATATATA [CACACA_site336],10.4 ± 0.44

row,Sequence,gcPBM binding intensity (ln)
1,TATATCTACTACACACGTACACAAAATAAGATACCT [XGTACX_site7886],11.5 ± 0.97
2,TTTTTTGTTAAGTTGGTGCAAACAATAGTTATTGAC,10.1 ± 0.26
3,TATTATATTTTTATTTGTACGTAAAATTAAGTTATG [XGTACX_site2405],11.4 ± 0.86
4,AAAAATATAAACAAACGTACGAAGTGATGATATATT [XGTACX_site2242],10.6 ± 0.071
5,TATTAATGATAAGAATATTTTATATGATACATGCAT [CACACA_negctrl_site923],9.825 ± 0.007
6,TATGTATTATATATTTGTACTCATTCTAATTCCTTC [XGTACX_site7294],11.2 ± 0.67
7,TATAAATAAATATGTACACACATATATACCTTTCAT [CACACA_site7291],11.4 ± 0.86
8,AATAATTAACAAAAAAAAAAAAAAAAAAAAAAAAAA [GTGCAC_negctrl_site255],9.53 ± 0.33
9,GGAAAGACAGTTCACAGTACCCAGGAAATCTGCGGA [XGTACX_site4933],10.8 ± 0.57
10,ACATATATGTATAATACACACACTAATATATAATTG [CACACA_site1966],10.16 ± 0.049
11,ATTTAAAAAAAAACGGAATTTTTTTTTTTTTTAAAG [XGTACX_negctrl_site91],9.615 ± 0.021
12,ATATTCATATATTTACGTACATACATTTATATATTT [XGTACX_site7644],11.4 ± 0.79
13,TATATTAATGTTCATAGTACGTATGATTAGGAAAAA [XGTACX_site616],11.1 ± 0.69
14,AATTTATAAAAGAAGAGGACACATATAAATATAAAT [XGTACX_site59],11 ± 0.81
15,TTTAGTTTTTATATAGCACACATATTGTGATTATGT [CACACA_site8316],10.1 ± 0.071
16,TGTATATCACATGAGAGGTGGAGATGGGGATAAATA [CACACA_negctrl_site1148],9.92 ± 0.099
17,ATACAATTCTTACATTGTACTTTTTTTTTTTATCAC [XGTACX_site6327],11.6 ± 0.99
18,TACAACCTTTAGACAAGTACAAGAATTATATGTGGC [XGTACX_site4581],11 ± 0.59
19,ACAAAATATATAGACACACAAACACAAATATGTTTT [CACACA_site3016],10 ± 0.19
20,TAATACAGATTAAAAGGTACACTTATTTGGTATTAT [XGTACX_site4966],11.1 ± 0.66
21,TTAATATGAATTATTACATGCAACTAAATATATTTA [TGCATGCA_site490],9.83 ± 0.028
22,TTGACAACTCTTTTCATACACACAAAAAAAAAAAAA [CACACA_site2362],10.1 ± 0.51
23,TCTATACCTATTCTTACACACATATGTATAAATATA [CACACA_site6407],10.2 ± 0.14

row,Sequence,gcPBM binding intensity (ln)
1,ACTAAAAAAATAAACACACAGATTTATATAATATAT [CACACA_site4884],9.96 ± 0.014
2,ACTAATAAAGGTGTAATACACACTATAAAAAGGAAT [CACACA_site1124],10.2 ± 0.13
3,AAAAAAAAAACACGCGCACACACACCCACCCACCCA [CACACA_site8689],10.8 ± 0.4
4,GAGAGGTATCAAAAATGTACACATATATATATGTAT [XGTACX_site5611],11.2 ± 0.71
5,TTTTTTCTTTATTATGGTACGTATAAAAAAATTATA [XGTACX_site3433],11 ± 0.71
6,ATATATAATATATATTGTACAGGTATGTCTATAAAT [XGTACX_site2243],10.9 ± 0.47
7,TATAAAATTTTTAAAAGTACATATTTTACATAATAC [XGTACX_site2193],11.1 ± 0.72
8,ATTATTCCATATTATTGTACTTTAATTTTTTAAACC [XGTACX_site2960],11.3 ± 0.81
9,TTTTTATCAACAAATAATACCATAACTCATATTTAT [CACACA_negctrl_site740],9.915 ± 0.049
10,TATATATATCTGTATACACACATACAAATATGTAAA [CACACA_site5950],10 ± 0.34
11,GATATTCATTATATATGTACATATATGTAATATATA [XGTACX_site2210],11 ± 0.6
12,TATTAAAGCACCCATGCACACACACTAAGGAAAAGA [CACACA_site7961],10.3 ± 0.39
13,AGAAAAAAATAATCATCACACACGGAGAATGTCCAA [CACACA_site2314],10.05 ± 0.014
14,GAAAATAACTAAAATTGTACAAAGAAACATATATTT [XGTACX_site6484],10.7 ± 0.29
15,ATATATTTTTTTTTTTCACACATTAGGATTCATATA [CACACA_site5758],9.91 ± 0.11
16,ATCATATGTATGGTGGTGCATTATGCATGAATTTTA [GTGCAC_site9798],10.1 ± 0.18
17,TAATAATATATAAAAAGTACATAACAAGATATGAAA [XGTACX_site4921],11.3 ± 0.94
18,TATATAAACCCACCTACACACACAACGTAAATGCAT [CACACA_site8702],10.2 ± 0.14
19,ATTATTATATTCAAATGTACTTAATAAACATTTTAA [XGTACX_site3023],10.8 ± 0.67
20,TTTATCTAAATATGTGTGCACTCGTTAATTTTTTTT,10.4 ± 0.23
